# Data reported in the supplement of paper PMC8728848.
# Some of the results follow.
# B1: HHL-1 (Homo sapiens), P07306 (protein)
# chain: TKEYQDLQHLDNEESDHHQLRKGPPPPQPLLQRLCSGPRLLLLSLGLSLLLLVVVCVIGSQNSQLQEELRGLRETFSNFTASTEAQVKGLSTQGGNVGRKMKSLESQLEKQQKDLSEDHSSLLLHVKQFVSDLRSLSCQMAALQGNGSERTCCPVNWVEHERSCYWFSRSGKAWADADNYCRLEDAHLVVVTSWEEQKFVQHHIGPVNTWMGLHDQNGPWKWVDGTDYETGFKNWRPEQPDDWYGHGLGGGEDCAHFTDDGRWNDDVCQRPYRWVCETELDKASQEPPLL
# What was measured:
# Assay in all cases: glycan array binding signal (z-score within array); higher = stronger binding
# Details in all cases: glycan notation: IUPAC condensed, linker removed
# [1] = biological target: Gal(b1-3)[Fuc(a1-4)]GlcNAc
# Summary of the method: (§1)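 From the Consortium for Functional Glycomics database, 3228 arrays were curated, keeping only those whose protein sequence was available. Binding is given as a within-array Z-score averaged across arrays sharing a protein sequence and across linkers. Negative Z-scores can be read as non-binding.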
# [2] = biological target: Gal(b1-3)[Fuc(a1-4)]GlcNAc(b1-2)Man(a1-3)[Gal(b1-3)[Fuc(a1-4)]GlcNAc(b1-2)Man(a1-6)]Man(b1-4)GlcNAc(b1-4)GlcNAc
# Summary of the method: as §1
# [3] = biological target: Gal(b1-3)[Fuc(a1-4)]GlcNAc(b1-2)Man(a1-3)[Gal(b1-3)[Fuc(a1-4)]GlcNAc(b1-2)Man(a1-6)]Man(b1-4)GlcNAc(b1-4)[Fuc(a1-6)]GlcNAc
# Summary of the method: as §1
# [4] = biological target: Gal(b1-3)[Fuc(a1-4)]GlcNAc(b1-3)Gal(b1-3)[Fuc(a1-4)]GlcNAc
# Summary of the method: as §1
# [5] = biological target: Gal(b1-3)[Fuc(a1-4)]GlcNAc(b1-3)Gal(b1-4)GlcNAc
# Summary of the method: as §1
# [6] = biological target: Gal(b1-3)[Fuc(a1-4)]GlcNAc(b1-3)Gal(b1-4)[Fuc(a1-3)]GlcNAc
# Summary of the method: as §1
# [7] = biological target: Gal(b1-3)[GlcNAc(b1-6)]GalNAc
# Summary of the method: as §1
# [8] = biological target: Gal(b1-3)[Neu5Ac(a2-6)]GalNAc
# Summary of the method: as §1
# [9] = biological target: Gal(b1-3)[Neu5Ac(a2-6)]GlcNAc(b1-6)Gal(b1-4)Glc
# Summary of the method: as §1
# [10] = biological target: Gal(b1-3)[Neu5Ac(b2-6)]GalNAc
# Summary of the method: as §1
# [11] = biological target: Gal(b1-4)GalNAc(a1-3)[Fuc(a1-2)]Gal(b1-4)GlcNAc
# Summary of the method: as §1
# [12] = biological target: Gal(b1-4)GalNAc(b1-3)[Fuc(a1-2)]Gal(b1-4)GlcNAc
# Summary of the method: as §1
# Gal(b1-4)Glc = biological target: Gal(b1-4)Glc
# Summary of the method: as §1
# Gal(b1-4)Glc6S = biological target: Gal(b1-4)Glc6S
# Summary of the method: as §1
# Gal(b1-4)GlcNAc = biological target: Gal(b1-4)GlcNAc
# Summary of the method: as §1
# [13] = biological target: Gal(b1-4)GlcNAc(a1-6)Gal(b1-4)GlcNAc
# Summary of the method: as §1
# [14] = biological target: Gal(b1-4)GlcNAc(b1-2)Man(a1-3)Man(b1-4)GlcNAc(b1-4)GlcNAc
# Summary of the method: as §1
# [15] = biological target: Gal(b1-4)GlcNAc(b1-2)Man(a1-3)[Gal(b1-4)GlcNAc(b1-2)Man(a1-6)]Man(b1-4)GlcNAc(b1-4)GlcNAc
# Summary of the method: as §1
# [16] = biological target: Gal(b1-4)GlcNAc(b1-2)Man(a1-3)[Gal(b1-4)GlcNAc(b1-2)Man(a1-6)]Man(b1-4)GlcNAc(b1-4)[Fuc(a1-6)]GlcNAc
# Summary of the method: as §1
# [17] = biological target: Gal(b1-4)GlcNAc(b1-2)Man(a1-3)[Man(a1-6)]Man(b1-4)GlcNAc(b1-4)GlcNAc
# Summary of the method: as §1
# [18] = biological target: Gal(b1-4)GlcNAc(b1-2)Man(a1-6)Man(b1-4)GlcNAc(b1-4)GlcNAc
# Summary of the method: as §1
# [19] = biological target: Gal(b1-4)GlcNAc(b1-2)Man(a1-6)[Man(a1-3)]Man(b1-4)GlcNAc(b1-4)GlcNAc
# Summary of the method: as §1
# [20] = biological target: Gal(b1-4)GlcNAc(b1-2)[Gal(b1-4)GlcNAc(b1-4)]Man(a1-3)[Gal(b1-4)GlcNAc(b1-2)Man(a1-6)]Man(b1-4)GlcNAc(b1-4)GlcNAc
# Summary of the method: as §1
# [21] = biological target: Gal(b1-4)GlcNAc(b1-3)Gal(b1-3)GlcNAc
# Summary of the method: as §1
# [22] = biological target: Gal(b1-4)GlcNAc(b1-3)Gal(b1-4)Glc
# Summary of the method: as §1
# [23] = biological target: Gal(b1-4)GlcNAc(b1-3)Gal(b1-4)GlcNAc
# Summary of the method: as §1
# [24] = biological target: Gal(b1-4)GlcNAc(b1-3)Gal(b1-4)GlcNAc(b1-3)Gal(b1-4)GlcNAc
# Summary of the method: as §1
# [25] = biological target: Gal(b1-4)GlcNAc(b1-3)Gal(b1-4)[Fuc(a1-3)]GlcNAc(b1-3)Gal(b1-4)[Fuc(a1-3)]GlcNAc
# Summary of the method: as §1
# [26] = biological target: Gal(b1-4)GlcNAc(b1-3)GalNAc
# Summary of the method: as §1
# [27] = biological target: Gal(b1-4)GlcNAc(b1-3)[Gal(b1-4)GlcNAc(b1-6)]Gal(b1-4)GlcNAc
# Summary of the method: as §1
# [28] = biological target: Gal(b1-4)GlcNAc(b1-3)[GlcNAc(b1-6)]Gal(b1-4)GlcNAc
# Summary of the method: as §1
# [29] = biological target: Gal(b1-4)GlcNAc(b1-6)Gal(b1-4)GlcNAc
# Summary of the method: as §1
# [30] = biological target: Gal(b1-4)GlcNAc(b1-6)Gal(b1-4)GlcNAc(b1-6)GalNAc
# Summary of the method: as §1
# [31] = biological target: Gal(b1-4)GlcNAc(b1-6)GalNAc
# Summary of the method: as §1
# [32] = biological target: Gal(b1-4)GlcNAc(b1-6)[Gal(b1-3)]GalNAc
# Summary of the method: as §1
# Gal3S(b1-3)GalNAc = biological target: Gal3S(b1-3)GalNAc
# Summary of the method: as §1
# Gal3S(b1-3)GlcNAc = biological target: Gal3S(b1-3)GlcNAc
# Summary of the method: as §1
binder,measurement,setting,value
B1,glycan array binding signal (z-score),[1],0.381
same,glycan array binding signal (z-score),[2],-0.539
same,glycan array binding signal (z-score),[3],-0.546
same,glycan array binding signal (z-score),[4],-0.552
same,glycan array binding signal (z-score),[5],-0.46
same,glycan array binding signal (z-score),[6],0.046
same,glycan array binding signal (z-score),[7],-0.409
same,glycan array binding signal (z-score),[8],-0.118
same,glycan array binding signal (z-score),[9],-0.507
same,glycan array binding signal (z-score),[10],0.135
same,glycan array binding signal (z-score),[11],-0.23
same,glycan array binding signal (z-score),[12],1.05
same,glycan array binding signal (z-score),Gal(b1-4)Glc,-0.242
same,glycan array binding signal (z-score),Gal(b1-4)Glc6S,-0.004
same,glycan array binding signal (z-score),Gal(b1-4)GlcNAc,-0.217
same,glycan array binding signal (z-score),[13],0.064
same,glycan array binding signal (z-score),[14],-0.358
same,glycan array binding signal (z-score),[15],-0.525
same,glycan array binding signal (z-score),[16],-0.551
same,glycan array binding signal (z-score),[17],-0.541
same,glycan array binding signal (z-score),[18],-0.544
same,glycan array binding signal (z-score),[19],0.739
same,glycan array binding signal (z-score),[20],-0.183
same,glycan array binding signal (z-score),[21],-0.519
same,glycan array binding signal (z-score),[22],0.621
same,glycan array binding signal (z-score),[23],-0.545
same,glycan array binding signal (z-score),[24],-0.523
same,glycan array binding signal (z-score),[25],-0.333
same,glycan array binding signal (z-score),[26],-0.137
same,glycan array binding signal (z-score),[27],-0.034
same,glycan array binding signal (z-score),[28],-0.525
same,glycan array binding signal (z-score),[29],0.036
same,glycan array binding signal (z-score),[30],0.262
same,glycan array binding signal (z-score),[31],4.51
same,glycan array binding signal (z-score),[32],0.32
same,glycan array binding signal (z-score),Gal3S(b1-3)GalNAc,-0.458
same,glycan array binding signal (z-score),Gal3S(b1-3)GlcNAc,0.228
